Measurements: the supplement of paper PMC11417369
The list shows a part of the results.

The sequences below were run on PfAP2-HC AP2 domain (GST-tagged) (assay: gcPBM binding intensity (ln(normalized median fluorescence intensity)); higher = stronger DNA binding).
Summary of the method: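 Binding intensity values are the highest Masliner-normalised natural-log median intensity among replicate spots of either probe orientation. The binding step lasted 1 h in 1× PBS with 1% milk, 0.2 mg/ml BSA, 0.5% salmon testes DNA and 0.03% Triton X-100, using GST-tagged P. falciparum DNA-binding domains expressed in E. coli on an Agilent 4 × 180k array of primer-extended double-stranded 36-bp intergenic genomic probes plus negative controls. Alexa488 anti-GST antibody and a 488 nm scan detected bound protein.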

Going from “TATATATTAATAAATAGTACCCGTGGAATTTATATT [XGTACX_site5855]” to “AATAATGAAACAGGAAAAAAATATTGTTAAAATGTA [XGTACX_negctrl_site400]”, the “gcPBM binding intensity (ln)” value rises from 9.65 to 9.72.

Compared with “TATTAATCTTTTTTTAAACAAAAAATTAAGCAAATT [CACACA_negctrl_site884]”, “TATATATAATATATATGTACATAATATATTTTATAT [XGTACX_site2909]” is higher in “gcPBM binding intensity (ln)” value: 9.15 for the first, 9.52 for the second.

First: TAAAACACTCATGGCACACATAAAACATTTTTATGA [CACACA_site3574]
Second: TCGTGTTTTAAAAAAATGAAGAAAAGTAAAAAAAAA [XGTACX_negctrl_site23]
The “gcPBM binding intensity (ln)” value of the first is higher: 9.77 for the first, 9.48 for the second.

Compared with “ATGATAGTAATTAATAGTACTTTTTTTGATACAAAA [XGTACX_site4288]”, “TAATATGAATATATATGTACATACAATTTGTTATAT [XGTACX_site5815]” is higher in “gcPBM binding intensity (ln)” value: 9.55 for the first, 9.78 for the second.

Compared with “ATTAAATGTATGACTTGTACATAAAATAAAAAAAAA [XGTACX_site6555]”, “TAAAGATATAAATGCACACGTATTAAAAAAAAAATA [CACACA_site952]” is higher in “gcPBM binding intensity (ln)” value: 9.73 for the first, 9.94 for the second.

Going from “TTATCATTACATGAGTGTACATTATTATATTTTTTT [XGTACX_site7845]” to “ATATATTTTTTTTTTTGTACGTATATTTATATAATT [XGTACX_site8719]”, the “gcPBM binding intensity (ln)” value falls from 9.87 to 9.8.

Compared with “GAAAGAAAGAAAGAAAGTACATATAAAAATATACAT [XGTACX_site7299]”, “CAAGAATTAAAATAAAGTACAAAAGTAACAACTTTT [XGTACX_site1474]” is higher in “gcPBM binding intensity (ln)” value: 9.51 for the first, 9.69 for the second.

Compared with “AAAAAAAAGGAAAAGGGTACAAAACCATACTTACAT [XGTACX_site4783]”, “ATTAGTGACATTATTACACACAAAAGAAAACAGAAA [CACACA_site3984]” is higher in “gcPBM binding intensity (ln)” value: 9.81 for the first, 9.99 for the second.

Compared with TGAATCTATATACAGGTGCGTAAAAAATAACTTATA, “TGTATGATTATGTTGTGTACGTAAAATATGAAAAAT [XGTACX_site1720]” is higher in “gcPBM binding intensity (ln)” value: 9.47 for the first, 9.74 for the second.

Compared with “GCACACATATAATTAAACATATATTTGTATTATTTT [GTGCAC_negctrl_site327]”, “GTATCATAAAAGTATACACACATACATACATATGTA [CACACA_site5456]” is higher in “gcPBM binding intensity (ln)” value: 9.9 for the first, 9.95 for the second.

Compared with “ATCTCTACAAAGTGCACACACGTAAAAACATATATA [CACACA_site6046]”, “ATTTTCCTTTAATTATGTACTTATGTAATAATAATG [XGTACX_site2612]” is lower in “gcPBM binding intensity (ln)” value: 9.92 for the first, 9.63 for the second.

Compared with “TTTTAATGTATATTTTGTACGTATTATTAATATTCG [XGTACX_site8453]”, “TATCCTAATGCTACCACACACACAAAAACAAATAAT [CACACA_site2609]” is higher in “gcPBM binding intensity (ln)” value: 9.64 for the first, 10.7 for the second.

“AATATTTATGGGTGCACACAAACATACATATATATA [CACACA_site3395]” and “AAAAAAAAGAATAGAGCATGCAAAATATATGAAATA [TGCATGCA_site933]” are the same in “gcPBM binding intensity (ln)” value: 10.2 for the first, 10.2 for the second.

First: ATGTTGAAAGGAAAAAATAATAAAATCGATATATTA [CACACA_negctrl_site549]
Second: CCTTACTTCTTATAAAGTACCCAATGATATACATTA [XGTACX_site1554]
The “gcPBM binding intensity (ln)” value of the first is higher: 9.6 for the first, 9.54 for the second.

Going from “AGGAAATTTGTTATTGCACACAAATTTTTCTTTTTT [CACACA_site8732]” to “AATGTCAGTATGCGAGGTACACGTATAAAAATTACA [XGTACX_site4109]”, the “gcPBM binding intensity (ln)” value falls from 9.78 to 9.65.

First: TATTATAATAAACCTATACACACATAAATAAATAAA [GTGCAC_negctrl_site627]
Second: TACATAAATTAAAACACACACACACTAGAAAAAAAA [CACACA_site5278]
The “gcPBM binding intensity (ln)” value of the first is lower: 9.86 for the first, 10.6 for the second.

First: TTTTACTAAATATATACACACATTATACAGATATAT [CACACA_site5765]
Second: TTTTAAATTGGAGTGGGCAGATTGATATTATTCTTC [GTGCAC_negctrl_site191]
The “gcPBM binding intensity (ln)” value of the first is higher: 9.86 for the first, 9.8 for the second.

First: AAAAATAAAATATATACACACATATATATATATATA [CACACA_site2943]
Second: ACATATATATATATGTGTACATATTTATACAACAAT [XGTACX_site6660]
The “gcPBM binding intensity (ln)” value of the first is lower: 9.61 for the first, 10.1 for the second.

Going from TTTTTAATTTTGTGGGTGCTTTCGTGTTATTATATA to “AAGTATAAATTAAAATGTACTTATAAAAAAAAAGAA [XGTACX_site7028]”, the “gcPBM binding intensity (ln)” value falls from 10.1 to 9.85.

First: TGTCACATAATTTATGCACACAATGATTATGCTTAA [CACACA_site2358]
Second: ACATATATTGTACATACACACCTATATAAATATCCT [CACACA_site7503]
The “gcPBM binding intensity (ln)” value of the first is lower: 9.71 for the first, 9.82 for the second.

Compared with “TATGTATGTATGTATGCATGTGTAACACCTAAATAT [TGCATGCA_site361]”, “CCATATTTCATTAATGAACACACAAAGAGGTATATA [CACACA_site8431]” is lower in “gcPBM binding intensity (ln)” value: 9.8 for the first, 9.77 for the second.

Compared with “TATATATATATACCAACACACATACATATATATATA [CACACA_site8530]”, “TAAAAAATAAAAATTGCACACTAAAAAATTACGCAC [CACACA_site9129]” is lower in “gcPBM binding intensity (ln)” value: 9.99 for the first, 9.73 for the second.
